The source gives no read counts; variants with many changes may rest on few reads.

Among the data in the RNAGym collection of RNA variant scans (doi:10.7554/elife.90254) are self-cleavage values, retold here.

B1: LINE1-full (parent)
chain: UACGUAGGUGGUUUUCCCCUGAUAGUGCUAAGGGGGCCUGGAAGUUUGGACUGGGCAGAGCUCAACACAGCGUGGCAAAGUGGCUGUGGCUAGACUGCCUCUCUGGAUUCCUCGUCACUCAGCAGGGCAUCUCUGAGAGAAAUGCC

The variants in this data set derive from B1. Nature of the data set: self-cleavage, relative activity (ratio to wild type); higher = more cleavage; in vitro, sequencing; the parent is a self-cleaving ribozyme.
On to U9C C37U U47C A64U U104A U115C, for which the self-cleavage was 0.55.
As to U9A U12G A67U G97A, the self-cleavage turned out to be 0.
With U9C G25U U45C A129G U130C the figure was 1.67; with U9C A22G A142G, 0.6.
Regarding G8A U46A A78G, the self-cleavage was 1.25.
With U9A A67G U85C U100C the figure was 0; with U9A U12C U143A, 0.6.
In the case of U9C A50G G126A, the self-cleavage was 1.12.
Regarding G7U U47C A69G A77U, the self-cleavage was 0.84.
For U9A A67G U96G, the self-cleavage worked out at 0.34.
With U9C U15C A22G U46C U81A U119C the figure was 2.8.
Consider G8C U47C U119C A142G, for which the self-cleavage was 1.23.
With U9C U14C U39G A129U the figure was 1.23; with U9C U13C U20A U62G U108C, 1.45; with U9A A59G U104C, 0.25.
As for U9C A59U U108C A141G, the self-cleavage stood at 1.58.
In the case of U9A U47C U91C C110G, the self-cleavage is 0.92.
Then U9A U26C A67G U87A G122A U143C, with 0.25.
As for U9A A64U U91C U102C, the self-cleavage worked out at 0.39.
For the variant U9A G36U U115A U143A, the self-cleavage is 1.39.
For U9A U23A G74A A124G U130C U134C, the self-cleavage worked out at 0.99.
Then U9A U20C U91C, with 0.76; and U9A U46A U109C U119A G127A, with 1.19; and U9C U26A A124G, with 0.97.
On to U9A G33U U39C A142G, for which the self-cleavage was determined as 1.15.
For the variant U9A U81C G83A A140G, the self-cleavage came to 0.56.
With U9A U23C A30G C37A A140G, the self-cleavage was determined as 0.81.
As for U9C A129G U130C, the self-cleavage was 0.
Regarding U9C G53C C110A, the self-cleavage stood at 0.51.
Then G8A U23C U108C U134A, with 1.65; and U9A A43G A50U G122U U132C, with 0.07; and U9A G53U A78U, with 1.53.
For the variant U9C U46C U112G, the self-cleavage is 2.76.
On to U9A G36C A129G, for which the self-cleavage came to 1.25.
In the case of U9C C19U U26A A31G U112A, the self-cleavage was found to be 0.84.
As for U9A A42G G54A A69U G82A A141G, the self-cleavage was found to be 0.04.
With G8A U46C G122U the figure was 1.37; with U9A A64G U81C, 0.2.
Then U9C A24U A43G A107G, with 0; and U9A U15C U143A, with 0.66; and U9A U45C G74U A117G, with 0.84.
On to U9C U15C C61A U62C A142G, for which the self-cleavage is 0.28.
As to U9C U47A U52C, the self-cleavage was 1.05.
On to U9C U12C U29G U91A U115A, for which the self-cleavage was found to be 0.8.
Then U9C A50G U96C, with 1.36.
For U9A C18U U20A A24G U109C U112C A129G, the self-cleavage is 0.
With U9C U20C C37A A43U U115C A141G the figure was 0.82; with U9A A22G G60A, 0.14; with U9C G11A U14A G126C A142G, 1.23.
Turning to U9A A22G U143C, the self-cleavage is 0.46.
As for U9C U14A U85A, the self-cleavage was 0.19.
Consider U9A U62C A121G, for which the self-cleavage was 0.31.
With U9A U47A A140G, the self-cleavage was determined as 0.57.
Then U9A U26C A57G G83A U119C, with 0.31; and G8A U29A A138G, with 1.4; and U9C U52C U104C, with 0.57.
U9C G41U U46C A57G U91C C110U: the self-cleavage was 0.09.
Then U9C U12C A129G, with 0.32; and U9A U45G U62C A142U, with 0.11; and G8A U20C A107G, with 1.04.
On to U9A U14C U85C U104C A140U, for which the self-cleavage was determined as 0.54.
With U9A A69G U143A the figure was 0.38; with U9C A43U A77G, 2.15.
Then U9A U47A U85C, with 0.18; and U9A A79G U130C, with 1.4; and U9C A57G U96A, with 0.2.
Consider G7U U26G U39C U47A G54A U91C A138G, for which the self-cleavage was 0.17.
Consider U9C A59U U73A U96C U112A, for which the self-cleavage was 0.
For U9C U12A U73A U112C A129U, the self-cleavage worked out at 1.31.
With U9A A64G C95U the figure was 0.06.
Then G8C U13C U20C U39C, with 1.8.
For the variant G8C C71A U85A A117U, the self-cleavage was found to be 0.06.
On to U9C C19U A129G, for which the self-cleavage is 1.45.
On to U9C G82U U102C, for which the self-cleavage is 1.5.
Then U9A U62C U119C, with 0.2.
On to U9A G32C U109C G122U, for which the self-cleavage worked out at 0.97.
With U9C U13C U119C the figure was 1.38; with U9C U13C C28A U91A A129G A140G, 0.58.
Regarding G8C A117U A129G, the self-cleavage was found to be 1.71.
With U9C C68U A107G A138U the figure was 0.19; with U9A A31U G49A U134C A140G U143C, 0.69; with U9C U26C U62C A117U, 0.13.
Then U9A U47C U100C U112C, with 0.57; and U9C U29C A57U, with 0.
As to U9A U13C A69G, the self-cleavage came out at 0.6.
Then G8U G72U U96A A142G, with 0.11; and U9C U13C A141G, with 0.82; and G8A A42U U52A, with 0.96.
In the case of U9A U46C A77U A124G, the self-cleavage was 0.96.
With U9C A69G C116U the figure was 0.56.
For the variant G8C A24G A65G, the self-cleavage came out at 0.36.
Regarding U9A A24U G35A, the self-cleavage stood at 1.3.
Then U9C U20C U143C, with 1.46.
For the variant U9C U26C U115C, the self-cleavage is 0.
With G7C U26C A107G the figure was 0.67.
With U9A A67G A142G the figure was 0.22; with U9A U47A A129G, 0.41.
For the variant G7U U14C U85C, the self-cleavage worked out at 0.32.
Then U9C U26G A79U, with 1.6.
For the variant G8C A92U A107G, the self-cleavage is 1.25.
As to G8A G36C U81A U91A U115C G122A, the self-cleavage stood at 0.77.
Turning to U9C U15C U81A U143C, the self-cleavage is 1.7.
For the variant U9C A65U G80A U112A, the self-cleavage came out at 0.23.
With G7U A67U U119C the figure was 0.14.
Turning to U9C G53U C90U U96A C110U, the self-cleavage came to 0.09.
Then U9A U46G A50U A59U U134A, with 0.44.
For the variant U9A U15C A77G U91A A129G U143C, the self-cleavage came out at 1.84.
As for U9C U52C A77G U143A, the self-cleavage was 1.15.
With U9C U39A U73C A92U A141G, the self-cleavage came to 0.77.
Take G8A A77U U96A A136G: the self-cleavage was 0.13.
Consider U9C G114A A129G, for which the self-cleavage worked out at 0.78.
With G8A G27A G72A A92G C110U the figure was 0.08; with U9C A67U U96C A138U, 0.26.
With U9C A42G A140G the figure was 0.69.
As to U9C U12G A78G U130C A142G, the self-cleavage was determined as 1.1.
As for U9A U14C A121G, the self-cleavage amounted to 0.77.
With U9A G88A U96C the figure was 0.06; with U9C A65G U102C, 0.
For U9C G32A A77U G106C, the self-cleavage was 0.42.
With U9C G75U U119C U130C the figure was 0.92; with U9C A31U G70A U87C A138G, 0.04.
With U9A U23C U29C U109A the figure was 2.18; with U9A G27A A59U, 0.74.
U9A U102C U109A: the self-cleavage was 1.01.
Then U9C U13C A69G G89A A138G, with 0.2.
With U9C U13C A67U A142G the figure was 0.47; with G8A C19U U52C, 0.89.
For the variant U9C G53A U87A U115C, the self-cleavage turned out to be 0.15.
On to G8C G36C U108A U132C A138U U143C, for which the self-cleavage came out at 2.35.
Turning to U9C G41U C113U A140G, the self-cleavage was 0.39.
As to U9A U20A A31G U73A, the self-cleavage was 0.99.
Then U9C C66A C118U A141G, with 0.3; and U9A A24G A30G, with 1.35; and U9A U46C A65U C99A A136G, with 0.11.
With U9C A30G A78G U100C A121U A136G the figure was 2.3; with U9A G97A A117G, 0.19.
With G7U U15C U102C C113U the figure was 1.47; with U9C A57U C128U U134C, 0.11.
U9C U14C U39C A59G U100C A142G: the self-cleavage was 0.
Then U9A U102C G106A, with 0.65; and U9A U20C A57G U85A, with 0.05; and U9C C66U A107G, with 0.
With U9C A69G A121G A140G the figure was 1.06.
As to U9C U29G G122U A136G, the self-cleavage stood at 0.74.
Then U9C U15C U52A A107G, with 0.35; and G7U U109A U119C U134G A141G, with 2.
In the case of G8A G35C A138G, the self-cleavage came to 1.07.
With U9A U20C A65G the figure was 0.37.
With U9A A57G U91G A140G U143C the figure was 0; with U9C U14C G33U A121G, 1.14; with U9C U12C U102C, 0.9.
With U9A A59U U85C the figure was 0.46; with U9A U29C U62C A69U U102C U134G A136G, 0.
With G8U U29C C110U, the self-cleavage worked out at 0.8.
Then U9A U13C U39A A92U U104C, with 0.44; and U9C U12G A31G A121U, with 0.26.
With U9A C16U G35U A117G, the self-cleavage was 1.12.
Then G8A U85C U132A, with 1.19; and U9C G10U U26A C38U, with 0.75.
Take G8A U13A A42G A129G: the self-cleavage was 0.4.
As for U9A A69G U115C, the self-cleavage was 0.74.
Then G8C C17U U26G A78G, with 0.89.
Then U9A U14C U85C, with 0.53; and U9C G33A A78G, with 0.96; and G8A U12A U20C U47G U100A A142G, with 0.8.
With U9A G89A A129G A138G the figure was 0.07; with G8A U9C U45C G137A, 0.84.
